Consider 167 variants from the RNAGym collection of RNA variant scans (doi:10.7554/elife.90254).

The source gives no read counts; variants with many changes may rest on few reads.

The chains are these.
B1: LINE1-full (parent)
chain: UACGUAGGUGGUUUUCCCCUGAUAGUGCUAAGGGGGCCUGGAAGUUUGGACUGGGCAGAGCUCAACACAGCGUGGCAAAGUGGCUGUGGCUAGACUGCCUCUCUGGAUUCCUCGUCACUCAGCAGGGCAUCUCUGAGAGAAAUGCC

This data set covers variants of B1. Put plainly: self-cleavage, relative activity (ratio to wild type); higher = more cleavage; in vitro, sequencing; the parent is a self-cleaving ribozyme.
Turning to U14C A42G U115C A124U, the self-cleavage was determined as 0. For the variant U14C A43G U100C, the self-cleavage was 1.53. For the variant U14C G35A A59G G75C C76U U102A, the self-cleavage is 0.05. In the case of U14A A57U U62C it was 0.09; in that of U13C U39C U134C, 1.03; in that of U14C A43G U73C A77G A129G, 0.92.

With U14C A78G A79G, the self-cleavage was determined as 2.51. To U13C U52G U108C belongs 0.97. In the case of U14A U23C U46C A64U, the self-cleavage turned out to be 0.84.

For U14C C66A U102C, the self-cleavage is 0.04. With U14A G35U U45A A69G, the self-cleavage was found to be 0.64. In the case of U13C U62A G106U A141G, the self-cleavage turned out to be 0.06. In the case of U14A U112A A117G it was 1.84.

In the case of U13C U20C U52C A141G, the self-cleavage was 1.47. Regarding U14C A22G U29C G58A U62A A124U, the self-cleavage turned out to be 0.08.

Regarding U13C U87A U100C, the self-cleavage is 0.55. For the variant U14A A31G U47A U109A, the self-cleavage was 1.31. Take U14C A50C A64U A77G C95U A136U A138G: the self-cleavage came to 0.05. With U13C U85C U119C, the self-cleavage came out at 0.33. On to U14C A124G A136G, for which the self-cleavage came to 1.84. To U14A A30G U102A belongs 1.27; to U14C A64U A124G, 0.26. To U14A U112C U132C belongs 1.13. Regarding U13C U26A C63U U108C U115C U134A A136G, the self-cleavage is 0.34. To U14A U45C U52A U132C belongs 1.55. Consider U14A U20A A94U, for which the self-cleavage amounted to 0.25. On to U14C G35A U81A, for which the self-cleavage worked out at 1.9. As for U13G A57U A142G, the self-cleavage was determined as 0.16. In the case of U14A G35U U73C U81A A107G U134A A140U it was 1.34; in that of U14C A50G U96C A138G, 0; in that of U14C C84A U96C G137A, 0.09. For U14C A79G U87C U100A, the self-cleavage amounted to 0.71. Consider U13C U102C A129G, for which the self-cleavage worked out at 0.68. To U14C A43G U62C A94G G105A A142G belongs 0; to U14A A77U A79U U112C G125U A141G, 2.11; to U13G A24G U62C A140U, 0.53. As to U14C A42G U104A, the self-cleavage was 0.57. In the case of U13C U87A U134C, the self-cleavage amounted to 0.06. To U14C A57C A78U U100A U102C U143C belongs 0; to U13C U26C A67G C98U, 0; to U14C A77U A92U, 0.88.

U13C U20C U47A: the self-cleavage was found to be 0.82.

As to U14A G35A U39C A92G A107G, the self-cleavage was 0. Take U14C C66A A67G: the self-cleavage was 0.05.

As to U14A U26A A31U U91C, the self-cleavage worked out at 0.32. To U14A U85C U112C belongs 0.33.

For U14C A79G A136U A138G, the self-cleavage came out at 0.78. Take U14C A42G A67U A94G: the self-cleavage is 0.08.

For the variant U14C A65G A136G, the self-cleavage is 0.22. To U14C A30U U102C U104C belongs 2.3; to U13C U23C U46C U87A, 0.3; to U13C U46C A117U, 1.1. In the case of U13C U47A A142U, the self-cleavage was 1.22. With U13C U104C C116A, the self-cleavage is 1.62. In the case of U14C G33A G60A U85G it was 0.1; in that of U13C U108C A129U, 0.6; in that of U13C U45C U109A A124G, 0.87. In the case of U14C A22G U132C it was 1.11; in that of U14C A136G G137U U143C, 0.93. Consider U13C U45C U87C, for which the self-cleavage is 0.2. In the case of U13C U20G U109C C118U A140G it was 0.31. To U14C C56U U130A A140G belongs 0.13; to U13C U52A A79G U134C, 0. Turning to U14C C38A U104C A141G, the self-cleavage worked out at 1.05. Regarding U14A A30U G32A, the self-cleavage turned out to be 0.97.

As for U14C A77U A79G U132C, the self-cleavage came to 1.24.

Turning to U13C U45C U115C U119A, the self-cleavage came to 1.8.

For the variant U14A A78G C98G A138G, the self-cleavage came to 0.11. Consider U13C U45A U52C C84A, for which the self-cleavage was determined as 0.13. To U14A A43G U119C belongs 1.12; to U13C U52A A65U, 0.35; to U13C U52C A64G, 0.56.

Take U13C U29C A30G U85C: the self-cleavage turned out to be 0.

For U13C U85C A92G U130C, the self-cleavage is 0.

With U14A A22G U26C A78G, the self-cleavage is 0. To U14C A24G A94U U143C belongs 0.52. As to U13C U87A U96C A142G, the self-cleavage stood at 0.

With U13C U62C G89A U96C, the self-cleavage was found to be 0.04. To U14C A31U U115C A136U belongs 1.79; to U13C U87C A140G, 0.15.

As for U14C G33C U46C A138G, the self-cleavage turned out to be 0.9. To U13G A24G C56U A59G belongs 0.09; to U14C G32A A42G G137A, 1.15; to U14C A57U U109C, 0.02. Turning to U14A A77U A94G, the self-cleavage was 0.23. To U14C A65G A77U G86A G106A belongs 0.04. With U14C A22G U100C U104G, the self-cleavage was found to be 2.01.

As for U14C G25A U132C, the self-cleavage was found to be 1.21.

With U14C A117G U143C, the self-cleavage is 2.4. To U14C A57U A92G U119C G135A A138G belongs 0.33; to U13C U26C U73A U87A A136G, 0.16. In the case of U14C C19U A69G G105A U112C A117G it was 0. As to U14A A64U U81G U102A U132C, the self-cleavage came out at 0.39. In the case of U14C G35A U87A it was 0.11; in that of U14C C37U U45C U112C, 1.31.

As for U14C A78G U112A, the self-cleavage came to 0.64. As for U13C U96C U104A A136U, the self-cleavage turned out to be 0.23.

For U14C A57U U73A A129G, the self-cleavage amounted to 0.

Take U13C U23C A69U: the self-cleavage was determined as 0.

For the variant U14C A65G U102C U119C, the self-cleavage stood at 0. Turning to U14C A43G C76A, the self-cleavage is 1.71. U14C A67U A142G: the self-cleavage stood at 0.08. To U14C A31U U39A A142G belongs 0.64; to U14C A22G A92U U96C, 0.25. With U14C A69U A117U U130A, the self-cleavage worked out at 0.1. As for U14C A43G A92G, the self-cleavage was determined as 0.48.

On to U13C U115C U132C, for which the self-cleavage came out at 1.84. In the case of U13C U29C C110U U132C it was 1.21; in that of U14C A22C A57U U112C U119C, 1.15. Take U13C U112C A142G: the self-cleavage worked out at 1.99. To U14C A22G A31U A69G U85A U134C belongs 0.16; to U13C U132C A138G, 1.3. To U13C U115A A124U belongs 1.37; to U14C A22G A77U, 1.05; to U13C U46C A59G, 0.09. Take U14C A42G C123U: the self-cleavage came to 0.89. To U14A U85C U130C belongs 0. As to U14C C63A G82A A94G A142G, the self-cleavage came to 0.03. For U13C U81A A107G U130C, the self-cleavage was determined as 2.21.

Turning to U14A G27A U100C U104A, the self-cleavage amounted to 1.41. In the case of U13C U62C U130A, the self-cleavage was found to be 0. In the case of U14A A59G A67U U81A it was 0.04; in that of U13C U47C U91C U96C G97C, 0. As to U13C U52A A65U A77G, the self-cleavage was 0.35. Regarding U14A C19A U20C, the self-cleavage was found to be 0.96. To U14C A124G A129U U130C belongs 1.58. To U14C A77G A141G belongs 2.45; to U14A U26C U134G, 0.79.

In the case of U13C U46A A136G, the self-cleavage was found to be 1.45. On to U14A A67U U143A, for which the self-cleavage is 0.14. With U14C A22G U100C U115C, the self-cleavage was 0.51.

As to U14C A69U A136U, the self-cleavage stood at 0.03. As to U14C A77G U81A U132C, the self-cleavage came to 2.68. U13C U46C A67C A77U U109A U130C A138G: the self-cleavage worked out at 0.2. U14C A94G U108C: the self-cleavage was determined as 0. As for U14C A24U U96A, the self-cleavage turned out to be 0.16. To U14A A43G C98U belongs 0.52; to U13C U23C U62C C63U A94G, 0.18. Take U14C A42G U46A: the self-cleavage amounted to 1.31. Regarding U14A A59G U91A, the self-cleavage is 0.1. In the case of U14C A65G U104A it was 0.09. In the case of U14C A79G A140C it was 0.42. To U14C A65G A79G belongs 0; to U14A U104A A142G, 0.82; to U14A U109A A138G, 0.56. As for U13C U85C A142G, the self-cleavage came out at 0.47. Take U14A U15C A67G G89A U112A A117U: the self-cleavage was determined as 0.11. To U13G A31U U46C belongs 1.21. On to U14C A64G A78G, for which the self-cleavage was 0.43. In the case of U13G G27A G54A U81C it was 0.48; in that of U14A A50G A79G C99U, 0.15; in that of U14C A31G A65U G74A U102C A107G C118U, 0.09.

With U13C U102C U143A, the self-cleavage turned out to be 1.06. For the variant U14C A79U U96C, the self-cleavage was determined as 0.2. In the case of U14C A65C A79G G114A U132G it was 0.07.

For the variant U14C A50G A140U A142G, the self-cleavage was found to be 0. To U14A U39G A117U belongs 0.91.

Regarding U13C U119C A129G, the self-cleavage was 0.

On to U14A U96C A138G, for which the self-cleavage was 0.45. In the case of U14C A64G A124U it was 0.25; in that of U13C U39A C120U A129G, 1.41; in that of U13C U87C U108A U130C U132C, 0.

As for U13C U45C G105C, the self-cleavage was 2.01.

In the case of U13C U23C C128U, the self-cleavage worked out at 1.43. In the case of U13C U23C A78G it was 1.17. For U14C A65U U115C, the self-cleavage worked out at 0.1. In the case of U14C A22G A129G it was 0.56.
